Measurements: the supplement of paper PMC4967469
Lines with a small IC50 respond at low doses; where the fit passes the top or lowest dose, that dose stands as a limit. The AUC spans the tested range (256-fold, ending at the top dose) of the same fit; values near 1 show little effect. For some assays here: Where the top dose is marked as inferred, it comes from the curve model; the source does not state it. For some assays here: An entry number marks a drug with two screens in the source, which often give different values.

Columns and labels:
Test in all cases: Viability of human cancer cell lines after 72 h of drug (GDSC screen)
[1] = compound: CCc1nc(N)nc(N)c1-c1ccc(Cl)cc1 [Pyrimethamine]; details: top dose 20 µM; top dose inferred
Protocol: (§1)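 Human cancer cell lines in 384-well plates, medium with 10% serum, drug for 72 h over a 256-fold dose range (nine 2-fold or five 4-fold steps up to the top dose). Adherent lines were fixed and stained with the nucleic acid dye Syto60, suspension lines read with resazurin; signal relative to control wells, capped at 0 and 100%. One two-parameter sigmoid per drug and line, fitted in a mixed model over all curves with the slope shared within a line.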

[2] = compound: Cc1ccc(NC(=O)c2ccc(CN3CCN(C)CC3)cc2)cc1Nc1nccc(-c2cccnc2)n1 [Imatinib]; details: top dose 2 µM
Protocol: as §1

[3] = compound: CC(C)CC(=O)Nc1n[nH]c2c1CN(C(=O)C1CCN(C)CC1)C2(C)C [PHA-793887]; details: top dose 10.24 µM
Protocol: as §1

[4] = compound: CN1CCN(CCOc2cc(OC3CCOCC3)c3c(Nc4c(Cl)ccc5c4OCO5)ncnc3c2)CC1 [AZD-0530]; details: top dose 2 µM
Protocol: as §1

[5] = compound: NC(=O)Nc1sc(-c2ccc(F)cc2)cc1C(N)=O [TPCA-1]; details: top dose 20 µM
Protocol: as §1

[6] = compound: CCCS(=O)(=O)Nc1ccc(F)c(C(=O)c2c[nH]c3ncc(Cl)cc23)c1F [PLX4720]; details: top dose 10 µM
Protocol: as §1

[7] = compound: C/C(=C\c1csc(C)n1)[C@@H]1C[C@@H]2O[C@]2(C)CCC[C@H](C)[C@H](O)[C@@H](C)C(=O)C(C)(C)[C@@H](O)CC(=O)O1 [Epothilone B]; details: top dose 0.032 µM; top dose inferred
Protocol: as §1

[8] = compound: C[C@@H](N)c1ccc(C(=O)Nc2ccnc3[nH]ccc23)cc1 [Y-39983]; details: top dose 20 µM; top dose inferred
Protocol: as §1

[9] = screen: GDSC drug entry 1371, top dose inferred

Cell Line	AUC [1]	IC50 [1]	AUC [2]	IC50 [2]	AUC [3]	IC50 [3]	AUC [4]	IC50 [4]	AUC [5]	IC50 [5]	AUC ([6]; screen: GDSC drug entry 1036)	IC50 ([6]; screen: GDSC drug entry 1036)	AUC [6, 9]	IC50 [6, 9]	AUC [7]	IC50 [7]	AUC [8]	IC50 [8]
HT-144 (melanoma, adherent)	0.756	7.58 µM	0.955	> 2 µM	0.981	> 10.2 µM	0.955	> 2 µM	0.961	> 20 µM	0.544	0.836 µM	0.739	3.31 µM	0.497	0.00196 µM	0.97	> 20 µM
JM1 (B-cell lymphoma, suspension)	0.986	> 20 µM	0.99	> 2 µM	0.463	0.516 µM	0.981	> 2 µM	0.678	3.62 µM	0.989	> 10 µM	0.986	> 10 µM	0.711	0.00713 µM	0.887	16.8 µM
JVM-2 (lymphoid neoplasm, suspension)	0.945	> 20 µM	0.96	> 2 µM	0.884	> 10.2 µM	0.937	> 2 µM	0.803	12.7 µM	0.851	> 10 µM	0.847	> 10 µM	0.979	> 0.032 µM	0.927	> 20 µM
KARPAS-45 (lymphoblastic leukaemia, suspension)	0.974	> 20 µM	0.984	> 2 µM	0.711	2.24 µM	0.96	> 2 µM	0.464	1.01 µM	0.893	8.44 µM	0.991	> 10 µM	0.682		0.801	7.9 µM
KMOE-2 (acute myeloid leukaemia, suspension)	0.971	> 20 µM	0.99	> 2 µM	0.701	2.19 µM	0.988	> 2 µM	0.845	12.2 µM	0.951	> 10 µM	0.965	> 10 µM	0.893	0.0309 µM	0.964	> 20 µM
KNS-81-FD (glioma, adherent)	0.979	> 20 µM	0.98	> 2 µM	0.942	> 10.2 µM	0.981	> 2 µM	0.961	> 20 µM	0.877	> 10 µM	0.961	> 10 µM	0.876	> 0.032 µM	0.964	> 20 µM
L-363 (myeloma, suspension)	0.941	> 20 µM	0.99	> 2 µM	0.459	0.502 µM	0.989	> 2 µM	0.785	7.34 µM	0.99	> 10 µM	0.99	> 10 µM	0.684	0.00601 µM	0.91	> 20 µM
LB2241-RCC (kidney, adherent)	0.968	> 20 µM	0.875	> 2 µM	0.984	> 10.2 µM	0.982	> 2 µM	0.955	> 20 µM			0.948	> 10 µM	0.62	0.00446 µM	0.975	> 20 µM
LB2518-MEL (melanoma, adherent)	0.944	> 20 µM	0.954	> 2 µM	0.987	> 10.2 µM	0.959	> 2 µM	0.919	> 20 µM	0.932	> 10 µM	0.986	> 10 µM	0.792	0.0153 µM	0.971	> 20 µM
LC4-1 (lymphoblastic leukaemia, suspension)	0.889	> 20 µM	0.906	> 2 µM	0.355	0.242 µM	0.896	> 2 µM	0.72	5.66 µM	0.96	> 10 µM	0.971	> 10 µM	0.772	0.0137 µM	0.937	> 20 µM
LOXIMVI (melanoma, semi-adherent)	0.834	11.1 µM	0.984	> 2 µM	0.879	8.53 µM	0.962	> 2 µM	0.868	15 µM	0.742	2.79 µM	0.65	1.55 µM	0.967	> 0.032 µM	0.986	> 20 µM
LU-65 (large cell lung carcinoma, suspension)	0.837	17 µM	0.98	> 2 µM	0.818	7.17 µM	0.975	> 2 µM	0.84	17.6 µM	0.982	> 10 µM	0.963	> 10 µM	0.822	0.0233 µM	0.936	> 20 µM
LU-139 (small cell lung carcinoma, suspension)	0.783		0.98	> 2 µM	0.586	1.18 µM	0.98	> 2 µM	0.841	> 20 µM	0.858	> 10 µM	0.979	> 10 µM	0.881	> 0.032 µM	0.888	> 20 µM
MFH-ino (soft tissue, adherent)	0.969	> 20 µM	0.98	> 2 µM	0.929	> 10.2 µM	0.833	1.62 µM	0.926	> 20 µM	0.983	> 10 µM	0.975	> 10 µM	0.249	0.000327 µM	0.969	> 20 µM
